Data reported in paper PMC7731665 (Frontiers in Immunology, 2020).

Target: T1, vimentin in lupus nephritis kidney tissue (Homo sapiens, UniProt P08670)
T1 construct: endogenous vimentin of human lupus nephritis biopsies; vimentin-rich zones marked with the anti-vimentin antibody V9; also called Vim^hi zones of inflamed lupus kidney; source: endogenous, paraffin embedded human lupus kidney biopsies
Test: immunostaining of cells or tissue; paraffin embedded lupus nephritis kidney biopsies, FLAG-tagged human IgG1 mAbs detected with rat anti-FLAG and Alexa Fluor 488 anti-rat IgG, co-stained with V9 and Hoechst; confocal microscopy, per field of view
Conditions: one partner purified

T1 sequence (P08670 whole entry): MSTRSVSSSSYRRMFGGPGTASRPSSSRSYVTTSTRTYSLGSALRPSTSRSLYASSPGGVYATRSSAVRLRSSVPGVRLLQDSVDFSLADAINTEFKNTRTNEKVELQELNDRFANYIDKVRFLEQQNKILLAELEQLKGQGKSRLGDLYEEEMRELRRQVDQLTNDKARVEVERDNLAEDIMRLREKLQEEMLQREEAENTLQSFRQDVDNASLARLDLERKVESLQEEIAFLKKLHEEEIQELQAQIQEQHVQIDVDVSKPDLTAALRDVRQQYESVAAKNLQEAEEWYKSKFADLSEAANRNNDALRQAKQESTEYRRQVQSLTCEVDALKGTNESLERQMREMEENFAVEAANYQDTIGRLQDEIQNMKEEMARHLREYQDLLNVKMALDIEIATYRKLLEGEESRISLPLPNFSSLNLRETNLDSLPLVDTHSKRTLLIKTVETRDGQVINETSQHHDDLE

B1: FLAG-tagged PB5rev (antibody, V domains shown)
VH: QVQLVESGGGVVQPGRSLRLSCAASGFTFSSYAMHWVRQAPGKGLEWVAVISYDGSNKYYADSVKGRFTISRDNSKNTLYLQMNSLRAEDTAVYYCARERRGNSDYFDYWGQGTLVTVSS
VL: EIVMTQSPATLSVSPGERATLSCRASQSVSSNLAWYQQKPGQAPRLLIYGASTRATGIPARFSGSGSGTEFTLTISSLQSEDFAVYYCQQYNNWPPMYTFGQGTKLEIK
notes: as the heavy chain of m10; as the light chain of m10; also called PB5rev (FLAG); source: heavy chain vector FJ475055 with FLAG co-expressed with the light chain plasmid, purified with protein A; not shown: FLAG, C-terminal, kept
- binding result: binds
